The assay has as its target Melanocortin receptor 4 (Homo sapiens, UniProt P32245). The assay is classed as functional, cell-based.

Calls of active or inactive are those of the source. No stated cut-off is given here; in the data, active = EC50 of 10 µM or less and inactive = more. Some results are limits rather than exact numbers.
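Further: human U2OS cells with tagged receptor and beta-arrestin; potency of agonists that increase receptor coupling to beta-arrestin.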

Chain of Melanocortin receptor 4 (P32245 whole entry): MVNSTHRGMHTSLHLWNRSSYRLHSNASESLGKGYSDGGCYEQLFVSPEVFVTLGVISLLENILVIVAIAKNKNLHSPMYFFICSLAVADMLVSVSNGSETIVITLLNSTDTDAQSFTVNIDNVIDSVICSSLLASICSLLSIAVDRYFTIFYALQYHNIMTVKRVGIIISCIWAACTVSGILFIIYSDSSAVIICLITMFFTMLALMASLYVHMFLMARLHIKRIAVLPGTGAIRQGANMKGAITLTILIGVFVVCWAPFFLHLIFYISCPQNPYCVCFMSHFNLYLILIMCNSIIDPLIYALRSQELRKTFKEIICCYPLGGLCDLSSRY

Usually EC50 stands for the concentration giving half of the maximal effect. On to `CCCCCCCCCCCCCCCC[n+]1ccccc1`, for which the EC50 was inactive: > 89.2 µM.

These data come from ChEMBL document CHEMBL1201862, “PubChem BioAssay data set” (2004).
